# Laboratory results: PubChem BioAssay AID1460 (National Center for Advancing Translational Sciences (NCATS), 2008)
# About 5,800 (2.1%) of roughly 270,000 compounds were called active. The shares of active, inactive and inconclusive entries below differ from those in the screen. Calls follow the shape of the dose curve; as a rule, active = well fitted inhibition curve with a large enough effect; inconclusive = small, poorly fitted or top-dose-only effect; inactive = flat fitted curve, though single readings scatter. Where the call is inconclusive, the potency comes from a doubtful curve fit.
# Target: Microtubule-associated protein tau (Homo sapiens) (UniProt P10636)
# Chain of UniProt P10636 (P10636 whole entry, looked up): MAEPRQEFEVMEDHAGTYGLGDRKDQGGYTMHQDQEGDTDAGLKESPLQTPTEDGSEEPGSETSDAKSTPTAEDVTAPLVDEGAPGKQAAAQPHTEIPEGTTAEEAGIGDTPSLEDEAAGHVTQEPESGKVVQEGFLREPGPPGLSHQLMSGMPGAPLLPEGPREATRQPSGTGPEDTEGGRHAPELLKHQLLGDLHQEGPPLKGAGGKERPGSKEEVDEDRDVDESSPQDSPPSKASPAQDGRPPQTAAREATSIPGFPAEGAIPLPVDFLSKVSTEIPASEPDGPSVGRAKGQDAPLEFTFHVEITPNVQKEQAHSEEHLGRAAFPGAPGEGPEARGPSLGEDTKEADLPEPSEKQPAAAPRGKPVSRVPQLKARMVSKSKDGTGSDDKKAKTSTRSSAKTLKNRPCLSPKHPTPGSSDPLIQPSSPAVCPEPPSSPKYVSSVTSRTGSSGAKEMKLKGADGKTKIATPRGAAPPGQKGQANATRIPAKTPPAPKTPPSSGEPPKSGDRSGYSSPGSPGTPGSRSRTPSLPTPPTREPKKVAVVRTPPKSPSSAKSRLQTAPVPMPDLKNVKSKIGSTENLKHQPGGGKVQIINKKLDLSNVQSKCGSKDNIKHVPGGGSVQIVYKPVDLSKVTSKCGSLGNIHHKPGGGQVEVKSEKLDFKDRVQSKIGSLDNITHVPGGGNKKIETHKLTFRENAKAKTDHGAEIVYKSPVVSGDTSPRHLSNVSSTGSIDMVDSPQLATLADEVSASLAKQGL
# Experiment: qHTS for Inhibitors of Tau Fibril Formation, Thioflavin T Binding; also: nearly all actives have a fitted effect of over 55% in size
# Settings: recombinant tau K18 P301L (four-repeat tau fragment), heparin-induced fibrillization, ThT fluorescence; series mostly up to 57.4 µM; activity, negative = inhibition: at the top concentration
# Procedure, shortened: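 K18 P301L tau (15 uM + 0.24 uM Alexa 594-tagged), heparin 20 uM, NaOAc pH 7, 6 h 37 C; ThT 30 uM, 1 h RT, ex 450/em 510 nm.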
# % is scaled to controls: 0 for no effect and ±100 for the full control effect; potency is read from the fitted curve at half-maximal effect; tags tell the direction and shape of the fitted curve.
Compound,Potency,"activity, negative = inhibition"
O=C(Nc1cccc2ncccc12)c1ccc(-c2ccc(Br)cc2)o1,"inconclusive: 2.24 µM [inhibitor, full curve, poor fit]",
CCC1(C)Cc2sc3c(=O)[nH]c(=S)[nH]c3c2CO1 (centres undefined),,inactive: -10%
CCOc1cc(/C=C(\C#N)C(=O)Nc2ccc(C)cc2)ccc1OCc1cc(=O)n2nc(CC)sc2n1,"inconclusive: 1.12 µM [inhibitor, full curve, poor fit]",
CCOc1ccc(NC(=O)c2c(NC(=O)c3ccccc3F)sc3c2CCC3)cc1,,inactive: -13%
Cc1cc(C)cc(C(=O)NC(CC(N)=O)c2ccc(NC3CCCCC3)c([N+](=O)[O-])c2)c1 (centres undefined),"inconclusive: 12.6 µM [inhibitor, partial curve]",
CCOc1ccccc1NC(=O)c1c(NCc2cccs2)sc2c1CCCCC2,,inactive: -17.1%
CCOC(=O)c1ccc(NC(=O)c2c(C)[nH]c(C(=O)OCC)c2C)cc1,"inconclusive: 4.47 µM [inhibitor, partial curve]",
O=C1CC(Sc2ccc(Cl)cc2)C(=O)N1c1ccc2c(c1)OCCO2 (centres undefined),"inconclusive: 3.55 µM [inhibitor, partial curve, poor fit]",
CCN1C(=O)/C(=C\c2ccc3c(c2)OCO3)C(C(=O)OC)=C1C,"inconclusive: 22.4 µM [inhibitor, partial curve]",
Cc1cc(C)cc(NC(=O)Nc2ccccc2OCc2cc(=O)n3ccccc3n2)c1,"inconclusive: 7.94 µM [inhibitor, full curve]",
COCCN1C(=O)/C(=C/c2cc3c(cc2Br)OCO3)NC1=S,"inconclusive: 25.1 µM [inhibitor, single point]",
COc1ccccc1NC(=O)CSc1nnc(Cc2cccn2C)n1CCc1ccccc1,"inconclusive: 25.1 µM [inhibitor, partial curve, poor fit]",
Cc1nc(/N=C\N(C)C)sc1C(=O)Nc1ccccc1,,inactive: -8.76%
CN(C)S(=O)(=O)c1cccc(N=C2NN=C(c3ccccc3)CS2)c1,active: 8.91 µM,
CC(=O)NC12CC3CC(C1)CC(C(=O)OCC(=O)Nc1ncc(Cl)c(C)c1Cl)(C3)C2,"inconclusive: 31.6 µM [inhibitor, partial curve, poor fit]",
CCOC(=O)c1ccc(N=C2SC(C(=O)NC)CC(=O)N2Cc2ccc(F)cc2)cc1 (centres undefined),,inactive: 4.2%
O=C(O)CSc1nnnn1-c1ccccc1,,inactive: -10.2%
CCOC(=O)N/N=C(C)/C=C/c1ccco1,"inconclusive: 28.2 µM [inhibitor, single point]",
COc1ccc(C2CC3(CC(C)(C)NC(=S)N3)Oc3cc(O)cc(C)c32)cc1 (centres undefined),"inconclusive: 44.7 µM [inhibitor, single point]",
CC(C)(C)c1ccc(C2=NC(C)(C)N(CC(=O)Nc3ccc(F)c(F)c3)C2=O)cc1,,inactive: 9.2%
Cc1cc(/C=C2/NC(=S)NC2=O)c(C)n1-c1cccnc1,"inconclusive: 3.98 µM [inhibitor, partial curve]",
CN1CCN(/N=C/c2nc(-c3cccc([N+](=O)[O-])c3)n3ccccc23)CC1,"inconclusive: 17.8 µM [inhibitor, partial curve]",
Cc1ccc(-c2nnc(Nc3ccc(OCC(N)=O)cc3)c3ccccc23)cc1S(=O)(=O)N(C)C,"inconclusive: 7.94 µM [inhibitor, partial curve]",

Compound,Potency,"activity, negative = inhibition"
CCC(=O)Nc1ccccc1C(=O)OCC(=O)c1ccc2ccccc2c1,"inconclusive: 11.2 µM [inhibitor, partial curve]",
CCCCn1c(O)c(N=Nc2ccccn2)c2ccccc21,"inconclusive: 12.6 µM [inhibitor, partial curve]",
Clc1ccc(/C=N/Nc2nn[nH]n2)cc1,,inactive: -1%
CCn1c(C)c(C)c2cc(C(=O)NCc3ccc(OC)cc3OC)ccc21,"inconclusive: 5.62 µM [inhibitor, partial curve]",
CC(C)NC(=O)c1cc2cc([N+](=O)[O-])ccc2s1,,inactive: -10.5%
c1nc(Nc2ccc(N3CCOCC3)cc2)c2ccsc2n1,"inconclusive: 12.6 µM [inhibitor, partial curve, poor fit]",
CCCCN(CC)CCCNC(=O)C1CCCN(c2ncnc3c2nc2n3CCCCC2)C1 (centres undefined),,inactive: -1.76%
CN(C)/C=C1/C=C(c2ccccc2)OC1=O,active: 39.8 µM,
O=C(CN1C(=O)/C(=C/c2cccc(Br)c2)SC1=S)Nc1cccnc1,"inconclusive: 15.8 µM [inhibitor, partial curve]",
Nc1nonc1C(=O)NCCNCc1cccc(Cl)c1Cl,,inactive: 3.6%
COc1ccc(-c2coc3cc(O)ccc3c2=O)cc1,"inconclusive: 5.01 µM [inhibitor, partial curve]",
COc1ccc2[nH]c(C)c(CCN(Cc3cccs3)C(=S)Nc3cccc(F)c3)c2c1,"inconclusive: 22.4 µM [inhibitor, partial curve, poor fit]",
O=c1oc2ccccc2c(NC(c2ccccc2)c2ccccc2)c1[N+](=O)[O-],,inactive: -3.25%
Cc1cccc(N=C2NC(=O)/C(=C/C=C/c3ccco3)S2)c1C,active: 15.8 µM,
COc1cc2c(C#N)c(N3CCOCC3)nc(N)c2c(N)n1,"inconclusive: 28.2 µM [inhibitor, partial curve]",
CCOC(=O)c1c(-c2ccccc2)nc2ccc(C)cn12,,inactive: -11.1%
Cc1cccc(NC(=O)CCCN2C(=O)c3ccccc3C2=O)n1,,inactive: -10.3%
CC1=NN(C(=O)COc2ccc(C)c(C)c2)C(O)(c2ccc(Cl)cc2)C1 (centres undefined),"inconclusive: 17.8 µM [inhibitor, single point]",
Cc1cccc2cc3c(N)c(C(=O)N4CCOCC4)sc3nc12,"inconclusive: 20 µM [inhibitor, single point]",
Cn1cc(-c2cc3n(n2)CCC(=O)N3CC(=O)NCc2ccc(Cl)cc2)c2ccccc21,,inactive: -4.42%
CCN(CCCNC(=O)c1cc(Nc2ccc(OC)cc2OC)nc2ccccc12)c1cccc(C)c1,"inconclusive: 7.94 µM [inhibitor, partial curve]",
COc1ccc(OC)c(-n2c(=O)c3ccccc3c3ccccc3c2=O)c1,"inconclusive: 15.8 µM [inhibitor, partial curve]",
CSc1ccc(/C=C/c2cc(=O)c3ccccc3[nH]2)cc1,"inconclusive: 4.47 µM [inhibitor, full curve]",

Compound,Potency,"activity, negative = inhibition"
COC(=O)c1ccc2c(c1)N(Cc1nc(-c3cccc(C)c3)oc1C)C(=O)C1CCCN21 (centres undefined),"inconclusive: 22.4 µM [inhibitor, partial curve]",
CCCCC1=CC2=CC(=O)C(C)(OC(=O)CC)C(=O)C2=CN1c1ccc(OC)cc1 (centres undefined),"inconclusive: 22.4 µM [inhibitor, partial curve]",
CC1CCC(NC(=O)c2ccc(/C=C3\Oc4ccccc4N(C)C3=O)cc2)CC1 (centres undefined),,inactive: 4.53%
O=C(O)C(Cc1ccccc1)N1C(=O)/C(=C/C=C/c2ccco2)SC1=S (centres undefined),active: 7.94 µM,
COc1cc(/C=N/NC(=O)c2ccc(CN(C)S(=O)(=O)c3ccc(C)cc3)cc2)ccc1O,"inconclusive: 0.631 µM [inhibitor, partial curve]",
N#C/C(=C\c1ccc(-c2ccccc2)o1)C(=O)Nn1cnnc1,"inconclusive: 25.1 µM [inhibitor, partial curve]",
COc1ccccc1-c1nnc(NC(=O)C(C)SC2=NCCS2)s1 (centres undefined),"inconclusive: 35.5 µM [inhibitor, partial curve, poor fit]",
COc1ccc(NC(=O)c2c(NCc3cccs3)sc3c2CCCC3)cc1,"inconclusive: 25.1 µM [inhibitor, partial curve]",
CCCCN(C)CC(O)Cn1cc(/C=C/C(=O)c2ccc(C)cc2)c2ccccc21 (centres undefined),active: 14.1 µM,
O=C(CN1C(=O)CCC1=O)NCC12CC3CC(CC(C3)C1)C2,,inactive: 1.34%
CC(C)c1ccc(NC(=O)Nc2csc3c2CCCC3)cc1,"inconclusive: 5.62 µM [inhibitor, full curve]",
CCOc1ccc(NC(=O)c2ccccc2NC(=O)CN2CCN(C(C)=O)CC2)cc1,,inactive: -5.54%
O=C1NC(=O)C2(COC(c3ccccc3Cl)OC2)S1 (centres undefined),,inactive: 2.93%
COc1cc2ccccc2cc1C(=O)Nc1ccc2oc(-c3ccc(Cl)cc3)nc2c1,"inconclusive: 0.708 µM [inhibitor, full curve]",
Cc1ccc(C)c(N2CCN(C(=O)CC3Sc4ccccc4NC3=O)CC2)c1 (centres undefined),"inconclusive: 22.4 µM [inhibitor, partial curve]",
CCN(CC)C(=O)c1cc2sc3ccccc3c2s1,"inconclusive: 20 µM [inhibitor, single point]",
N#Cc1c(-c2ccccc2)nc(SCC(=O)N2c3ccccc3Sc3ccccc32)[nH]c1=O,"inconclusive: 20 µM [inhibitor, partial curve]",
CCN(CC)S(=O)(=O)c1ccc(N/N=C/c2ccccc2OCC(=O)O)c([N+](=O)[O-])c1,"inconclusive: 11.2 µM [inhibitor, partial curve]",
O=C(CSc1nc2ccccc2n1CCc1ccccc1)c1ccc(O)c(O)c1,"inconclusive: 22.4 µM [inhibitor, partial curve]",
CC(=O)c1sc(NC(=O)COc2c(C)cc(Cl)cc2C)nc1C,"inconclusive: 3.98 µM [inhibitor, full curve]",
O=C(NC(=S)Nc1ccc(S(=O)(=O)Nc2nccs2)cc1)c1ccc(F)c(F)c1,,inactive: -2.06%
NC(=O)c1ccccc1N/C=C/C(=O)c1cccs1,"inconclusive: 1.78 µM [inhibitor, partial curve]",
COc1ccc(N2CCN(C(CNS(=O)(=O)c3cc(F)ccc3F)c3cccnc3)CC2)cc1 (centres undefined),"inconclusive: 17.8 µM [inhibitor, partial curve, poor fit]",
